# In all, about 310,000 compounds went through this assay and about 2,200 (0.71%) showed an effect of 50% or more. The effect is printed as a negative number. The list shows a part of the results.
# Biological target: human ether-à-go-go-related gene (hERG) potassium channel (human, UniProt Q12809)
# Assay: primary screen, population patch clamp on CHO cells stably expressing hERG
# Sequence of human ether-à-go-go-related gene (hERG) potassium channel (Q12809 whole entry, looked up): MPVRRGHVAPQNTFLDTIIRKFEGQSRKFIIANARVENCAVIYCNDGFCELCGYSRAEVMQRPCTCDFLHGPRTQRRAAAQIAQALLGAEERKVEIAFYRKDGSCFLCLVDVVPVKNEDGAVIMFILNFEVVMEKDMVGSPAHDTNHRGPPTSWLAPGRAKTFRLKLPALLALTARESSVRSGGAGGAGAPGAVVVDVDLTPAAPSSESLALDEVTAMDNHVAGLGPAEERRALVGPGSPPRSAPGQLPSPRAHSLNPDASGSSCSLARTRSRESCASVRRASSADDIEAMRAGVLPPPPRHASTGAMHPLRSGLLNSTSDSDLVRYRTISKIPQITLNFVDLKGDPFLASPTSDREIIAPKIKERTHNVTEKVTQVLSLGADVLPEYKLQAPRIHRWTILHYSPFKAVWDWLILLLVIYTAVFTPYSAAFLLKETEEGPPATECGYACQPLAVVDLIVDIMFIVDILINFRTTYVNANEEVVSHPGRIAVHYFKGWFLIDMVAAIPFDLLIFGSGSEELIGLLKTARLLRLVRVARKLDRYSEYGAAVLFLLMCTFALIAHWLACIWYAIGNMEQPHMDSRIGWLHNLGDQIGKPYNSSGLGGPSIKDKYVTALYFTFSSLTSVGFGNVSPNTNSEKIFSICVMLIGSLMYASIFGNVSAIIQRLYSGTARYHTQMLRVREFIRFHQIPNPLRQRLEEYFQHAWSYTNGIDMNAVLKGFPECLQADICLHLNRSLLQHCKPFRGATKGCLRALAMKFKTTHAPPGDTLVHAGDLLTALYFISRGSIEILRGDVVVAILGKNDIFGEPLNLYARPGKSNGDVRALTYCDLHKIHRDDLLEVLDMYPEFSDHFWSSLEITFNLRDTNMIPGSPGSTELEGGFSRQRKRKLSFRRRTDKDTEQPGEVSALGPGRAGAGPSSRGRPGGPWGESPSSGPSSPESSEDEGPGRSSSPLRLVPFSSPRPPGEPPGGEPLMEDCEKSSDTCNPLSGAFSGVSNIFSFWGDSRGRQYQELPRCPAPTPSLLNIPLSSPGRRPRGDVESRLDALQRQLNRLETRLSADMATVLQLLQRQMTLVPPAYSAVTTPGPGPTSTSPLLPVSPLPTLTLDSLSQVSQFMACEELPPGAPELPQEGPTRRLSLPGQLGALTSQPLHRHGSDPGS
row,SMILES,"hERG current change (%, negative = inhibition) at 1uM [%]"
1,C=CCNC(=O)c1onc(CSc2ccc(C)c(C)c2)c1C(=O)O,10.1
2,Cc1ccc(OCCOCCNC(C)C)c(Br)c1.O=C(O)C(=O)O,2.67
3,COc1ccc2c(c1)c1nnc(SCC(=O)NC3CC3)nc1n2C,10.8
4,CN1C(=O)/C(=C/c2ccc(OCc3ccc(F)cc3)cc2)NC1=S,20.7
5,COc1ccc(C2=Nn3c(nnc3C3CCCCC3)SC2)cc1OC,-1.87
6,N#Cc1c(-c2ccccc2)cc2nc3ccccc3n2c1N,12.5
7,CC(=O)c1ccc(NC(=O)C2CCCN(S(=O)(=O)c3c(C)[nH]c(=O)[nH]c3=O)C2)cc1 (stereo not drawn),17.2
8,CCOC(=O)c1ccc(NC(=O)CCOc2ccc(C)cc2)cc1,9.9
9,COC(=O)c1ccc(NC(=S)NN2CCOCC2)cc1,-12.8
10,C=CCC(CC(O)COCCC)C(=O)NNC(=S)Nc1ccccc1 (stereo not drawn),17.1
11,Cc1ccc(-c2c(C(=O)N/N=C/c3ccc4c(c3)OCO4)nnn2-c2nonc2N)cc1,15.1
12,COC(=O)c1cc(NC(=O)c2ccc([N+](=O)[O-])cc2)c(=O)oc1C,7.17
13,COc1ccc(/C(C)=N/Nc2nc3ccccc3nc2C)cc1OC,7.64
14,COc1ccc(-c2noc(N3CCC(C(=O)Nc4ccccc4OC)CC3)n2)cc1,0.853
15,CCc1ccccc1NC(=O)CCC(=O)Nc1nnc(C(C)C)s1,19.1
16,CCN1C(=O)C(CC(=O)Nc2ccc(F)cc2)N(Cc2ccco2)C1=S (stereo not drawn),-0.542
17,Cc1cc(OCC(=O)NCC(c2cccs2)N2CCOCC2)ccc1C(C)C (stereo not drawn),-6.69
18,O=C(c1cccc(Cl)c1)N1CCC(C(=O)N2CCN(Cc3ccccc3)CC2)CC1,-8.46
19,C=C(C)COc1ccc(-c2nc(N)nc(C(F)(F)F)c2-c2ccc(OC)cc2)c(O)c1,19.8
20,COc1cc(/C=N/NC(=O)c2ccncc2)ccc1O,4.04
21,CCOc1ccc2[nH]c(=O)c(CN(CCc3ccccc3)C(=O)N3CCCC3)cc2c1,-4.91
22,O=C(Nc1ccc(Br)cc1)C1Cc2ccccc2O/C1=N\O (stereo not drawn),7.28
23,O=C(NCc1ccc(F)cc1)C1CCN(C(=O)NCc2ccccc2)CC1,19.1
24,COc1cc(C)c(Cl)cc1S(=O)(=O)NCc1ccco1,8.11

# Reference: article PMC4336329 (PLoS ONE, 2015)
